Laboratory results as given in the supplement of paper PMC3334620.
The full ranking holds about 33,000 sequences; the median of “E-score (-0.5 to 0.5)” is about -0.054, and the highest 2% start at about 0.35. This is one part of the list.

Target: T1, Stb5 (UniProt P38699)
T1 sequence: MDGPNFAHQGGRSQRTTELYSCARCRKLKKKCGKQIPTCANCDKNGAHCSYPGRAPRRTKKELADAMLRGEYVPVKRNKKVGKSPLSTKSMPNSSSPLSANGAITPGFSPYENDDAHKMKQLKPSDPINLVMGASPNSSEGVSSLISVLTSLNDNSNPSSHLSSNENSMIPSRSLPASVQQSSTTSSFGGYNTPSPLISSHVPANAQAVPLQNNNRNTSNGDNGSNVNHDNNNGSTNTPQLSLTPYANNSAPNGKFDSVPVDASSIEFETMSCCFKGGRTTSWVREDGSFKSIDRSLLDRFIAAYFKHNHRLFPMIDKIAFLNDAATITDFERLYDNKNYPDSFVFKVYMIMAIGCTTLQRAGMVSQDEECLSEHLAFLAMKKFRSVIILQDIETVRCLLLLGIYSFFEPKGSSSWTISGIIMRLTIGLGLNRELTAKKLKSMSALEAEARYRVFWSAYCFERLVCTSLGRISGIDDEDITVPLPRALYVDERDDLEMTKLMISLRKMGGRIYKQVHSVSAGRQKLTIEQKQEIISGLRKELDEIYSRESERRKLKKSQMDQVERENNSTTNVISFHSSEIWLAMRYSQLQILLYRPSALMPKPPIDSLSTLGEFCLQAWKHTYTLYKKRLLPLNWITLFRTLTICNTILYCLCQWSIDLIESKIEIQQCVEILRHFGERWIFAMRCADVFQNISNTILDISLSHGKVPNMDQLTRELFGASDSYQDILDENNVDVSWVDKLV
Assay: PBM E-score (8-mer binding enrichment) (E-score (-0.5 to 0.5)); higher = stronger / more preferred TF binding; most listed sequences are background and not binding sites
Conditions: protein concentration: 200 nM; construct: GST-full length
How it was run: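 Detection of bound protein used fluorescent anti-GST, with scans normalised by masliner. The proteins were GST-tagged yeast transcription factors applied at about 100-200 nM to universal all-10-mer Agilent arrays made double-stranded by primer extension. Each ungapped eight-base word, pooled with its reverse complement, was scored with an E-score from the Universal PBM Analysis Suite.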

Sequence	PBM E-score
AGACTCGG	-0.0398
ACTCCTAC	-0.068
GCATAAGC	0.0731
CTGCCCAC	-0.256
ATACCAAG	0.0722
ACCACTCT	-0.243
ACGTCGAC	-0.0741
CAACATTA	-0.0568
TGCGAGAA	-0.253
CCTACTAA	-0.0938
CGAGCCCG	0.0887
ACTTATCG	0.0822
CCGGTTCC	0.222
CCGTGGAA	0.215
CCTGGCAG	-0.283
CCCTAACC	-0.0852
ACTGCAAA	-0.271
TATGCTGA	-0.0365
ATGAACCA	-0.252
ATCAGCAT	-0.0274
AAAAGTTT	-0.05
AAGTGGGC	-0.196
ACGAGGAG	-0.41
CGACCTCA	-0.119
CCCTACGA	-0.21

Sequence	PBM E-score
CATGTGTC	-0.152
CCCAGAGA	-0.175
AATATACC	0.147
ACCATACC	-0.0642
GACAGTCC	-0.0292
ACGACAAG	0.0071
AAAGTGAC	-0.0657
CCTAGTCA	-0.28
CTTCGAGA	-0.132
GTCAAAAA	-0.136
GCTTGGCA	-0.35
TAAATATA	0.0785
ACTGGCCT	-0.108
CGCTGATA	0.26
ACGGCTGG	-0.108
CAGAGTAG	-0.166
ATGACATG	-0.135
AGGTACGG	0.239
ACAGGCGG	0.293
CACTTGTA	-0.0461
ACTTTTCG	-0.0161
TTAGAAAA	-0.0901
CTGAGCTA	-0.156
TAACTGAA	-0.244
GCAGTGCA	-0.17

Sequence	PBM E-score
ACCACGGA	0.166
CACACAAA	-0.288
GTGCGCGA	-0.00029
CAGTTCAC	-0.188
AGAGGCAC	-0.179
ATTAACAG	-0.0815
ATATTGTG	-0.132
GTCAGCTA	-0.163
GTATGGCA	-0.207
ATGCCACG	-0.041
CAGTATCA	-0.137
GCTGGCTA	-0.324
ATATGTAG	-0.174
AAAACACG	-0.0278
CCAGCGGG	0.25
ATGCAGAA	-0.237
AGTTTTCC	0.11
AGCTTAAC	-0.221
GCAGTAAA	0.148
CCTTCTAA	-0.319
ATATCATG	0.0063
CGAATACA	-0.0285
ATTATTAC	0.228
CATGAATG	-0.0209
CCTAGGGC	-0.145

Sequence	PBM E-score
ATGTGCAG	-0.222
ACGGTAGT	0.191
AAGGTGTC	0.081
GCCCACAC	-0.0569
AATAGGGG	-0.0342
CGCAGGAG	-0.149
CTATGCTC	-0.244
AAACGCTG	-0.081
ATTAGGGA	-0.108
CTTCCTTC	-0.195
CATACTTC	-0.0981
AGAAAGAT	-0.187
GTAACCAC	-0.133
TGCGGCAA	0.0503
CGATGTGA	-0.0768
ATACCTGG	0.0825
CAGTGAGA	-0.143
CGAAGACG	0.124
AACGTTGT	-0.107
TCCAAACA	-0.225
GACAAGAC	-0.0885
CGCTTTTC	-0.00357
CTCTGGCA	-0.222
CTTTTACC	-0.0389
TAAGATAA	-0.0372

Sequence	PBM E-score
CTGTTGTC	0.00312
TTCTTCAA	-0.0893
AATCAGCC	-0.0814
AGGGTACA	-0.18
ACAGGGTC	-0.0853
ATCTTGAA	-0.15
GTTTATGA	-0.0122
CGTCTTAA	-0.0278
AGCAAAAT	0.00935
CGTGGGCC	0.0271
CTGGACGA	-0.0219
CGGAACAA	0.235
AAAACGGC	0.21
AGTCGGTC	0.259
AATGTTAC	-0.0138
AGCTTCTC	-0.249
GTCACGAA	-0.132
CGGACAAA	0.348
CACATACC	0.0991
GGTGGCGA	-0.0644
GAACTTAC	-0.142
GCCAACTA	-0.189
ATTTAGTC	-0.0872
CGAAAAGC	-0.00632
CCCGTGTC	0.175

Sequence	PBM E-score
CAGAGGAA	-0.174
TGTCGTAA	-0.227
CCATTCGC	-0.188
TCCAAGCA	-0.0699
CACGGTCG	0.0812
CTGTCTAA	-0.032
TCTAGGCA	-0.0493
GATTCCGC	0.154
CGGTACCG	0.24
ATCGTAAC	0.0562
ACGGTGGG	0.126
GGCTTTTA	0.312
CGCGAGGA	-0.124
AAATAAGC	-0.0955
ACTTGTAA	-0.0526
AATATGTC	-0.0217
GCTGGTCC	0.0105
CATCGATA	0.049
CGCCGACG	0.395
ACACCCCC	-0.0732
GGCGCCAC	0.164
CAGCTTCC	-0.221
GTGGGAAC	-0.241
AAAGTAAG	-0.119
CATCGGGC	0.214

Sequence	PBM E-score
TGGATACA	-0.256
GGCGGACC	0.412
CCCGTTGA	0.221
GCCAGCAA	-0.0363
CTAAACAC	0.0396
ACGACTAA	-0.134
CACCTCAG	-0.221
CGTGAGGC	-0.133
CAAGGCCA	-0.186
AGGGATCG	-0.0472
CAGATTGC	-0.172
ACCGCCCT	0.268
GGCGGGAA	0.287
CTCATCCC	-0.0546
ACGACTAT	-0.134
GGAACCTA	-0.00354
CGCCTACG	0.0464
ACTGAATG	0.00391
ATGAACGA	-0.0854
TGACCAAA	-0.249
ATTAGGCG	0.0607
AATAATCT	0.0195
